# Where two headings read alike, the source gives them in different places.
# How the values were obtained:
# [1] = test system: CLP model used to induce severe grade sepsis; type: in vivo; conditions: control: saline vehicle plus 12.5 mg/kg imipenem twice daily; female mice
# [2] = test system: CLP model used to induce severe grade sepsis; assay: L4L-121 Efficacy Study 1, CLP model; conditions: control: 0.9% saline IP daily plus 12.5 mg/kg imipenem twice daily; male mice
# [3] = test system: CLP model used to induce severe grade sepsis; type: in vivo; conditions: control: saline plus 12.5 mg/kg imipenem twice daily; male mice
# [4] = test system: CLP model used to induce severe grade sepsis; type: in vivo; conditions: control: saline vehicle plus 12.5 mg/kg imipenem twice daily; female mice; remark: listed apart in the source
compound,measurement,setting,value
C[C@@H](O)[C@H]1C(=O)N2C(C(=O)O)=C(SCCN=CN)C[C@H]12 [imipenem],death,[1],70%
same,mortality,[2],50%
same,mortality,[3],60%
same,death,[4],70%

# — patent US20230277494A1, “TRANS-CROCETIN COMPOSITIONS AND TREATMENT REGIMENS” (priority 2020, published 2023)
